About 800 (1.6%) of roughly 50,000 compounds showed an effect of 50% or more. The list shows a part of the results.
biological target: Bcl-2-like protein 10 (Homo sapiens) (UniProt Q9HD36); assay: Phenotype converters, Bcl-B/TR3 peptide binding displacement, primary biochemical FP (AID 1240); conditions: GST-Bcl-B / FITC-TR3 peptide fluorescence polarization; stronger effect = higher value; compound at 3.75 mg/L;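 further: 0% = Bcl-B with tracer peptide and DMSO and 100% = tracer peptide lacking Bcl-B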
Chain of UniProt Q9HD36 (Q9HD36 whole entry, looked up): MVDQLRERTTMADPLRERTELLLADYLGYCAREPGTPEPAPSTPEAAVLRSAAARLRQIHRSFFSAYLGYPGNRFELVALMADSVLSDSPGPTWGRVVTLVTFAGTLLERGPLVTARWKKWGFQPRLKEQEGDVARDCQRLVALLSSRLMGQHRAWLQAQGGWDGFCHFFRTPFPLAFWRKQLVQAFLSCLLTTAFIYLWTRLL

Row | Compound | displacement [%]
1 | COCCOC(=O)c1ccc(NC(=O)COc2ccc(C)c(C)c2)cc1 | -4.5
2 | O=C(COc1ccccc1Cl)NCc1ccc2c(c1)OCO2 | -4
3 | CCOC(=O)Cn1c(-c2nonc2N)nc2ccccc21 | -5.3
4 | CN(C)CCOC(=O)CCc1cc(C(C)(C)C)c(O)c(C(C)(C)C)c1 | -13.5
5 | O=C1OC(/C=C/c2ccccc2)=NC/1=C/c1ccccc1 | 13.6
6 | CCOC(=O)C1=C(c2ccccc2)NC(=S)NC1c1ccc(OC(C)C)cc1 (stereo not given) | 10.7
7 | CCOc1ccccc1NC(=O)C(=O)N/N=C/c1ccc(C(C)(C)C)cc1 | -5.1
8 | COc1ccccc1NC(=O)CCN1C(=O)S/C(=C/c2ccc(OC)c(OC)c2)C1=O | 34.6
9 | CCN(CC)C(=O)CSc1nc(-c2ccccc2)c(-c2ccccc2)o1 | 6.6
10 | Oc1ccccc1/C=N/Nc1cc(N2CCCCC2)nc(N2CCCCC2)n1 | -0.9
11 | COc1ccc(C2/C(=C(\O)c3ccc(F)cc3)C(=O)C(=O)N2c2ccccn2)cc1OC (stereo not given) | 10.5
12 | O=C(CC1S/C(=N\N=C\c2cccs2)NC1=O)Nc1ccccc1F (stereo not given) | -12.7
13 | O=C(c1cc(F)c(F)cc1Cl)N1CCN(c2ccc([N+](=O)[O-])cc2C(F)(F)F)CC1 | 2.8
14 | O=C(Nc1ccccc1)c1ccccc1N1C(=O)c2ccccc2C1=O | 3.6
15 | O=C1C(=O)N(CCO)C(c2cccc([N+](=O)[O-])c2)/C1=C(\O)c1ccccc1 (stereo not given) | -12.7
16 | Nc1nc(/N=C/c2ccc(F)cc2)n[nH]1 | -0.9
17 | Cc1c(NC(=O)c2ccc3c4c(cccc24)CC3)c(=O)n(-c2ccccc2)n1C | 4.5
18 | Cc1ccc(C)c(NC(=O)Cn2nc(C)c3ccccc3c2=O)c1 | -15.4
19 | Cc1ccc(C(C)C)c(OCC(=O)N/N=C/c2cc3c(cc2Cl)OCO3)c1 | 7.9
20 | CCOc1c(Br)cc(/C=C2/C(=O)NN(c3ccc(CC)cc3)C2=O)cc1OC | 20.5
21 | CCOc1ccc(NC(=O)C2C3CCC4C(CCC32)C4(Cl)Cl)cc1 (stereo not given) | -4.6
22 | COc1ccc(N(CC(=O)Nc2cccc3ccccc23)S(C)(=O)=O)cc1Cl | 0.5
23 | CCOc1cc(C=O)ccc1OCc1c(F)cccc1Cl | -6.7
24 | CC(C)C(NC(=O)c1c(Cl)cccc1Cl)C(C)C | 6.5
25 | CCN(CC)C(=O)COc1ccc(C=O)cc1OC | -8.5
26 | CC(NC(=O)CSc1nnc(N)s1)c1ccccc1 (stereo not given) | 3.5
27 | CCOc1ccc(/C=N/N2C(=O)C3C(C2=O)C2C=CC3C23CC3)cc1OC (stereo not given) | 10.2
28 | CC(C)C1/C(=N/O)CC(c2ccccc2)NC1c1ccccc1 (stereo not given) | 8.4

Row | Compound | displacement [%]
29 | Cc1cc(/C=N/NC(N)=O)c(C)n1-c1ccc(Br)cc1 | -6.4
30 | CC(=Nc1cccc2ccccc12)c1cc(Cl)ccc1O | 13.5
31 | NC(=O)c1cccc(N=Cc2ccc(OCc3ccccc3)cc2)c1 | -6.6
32 | CN(C)c1cccc(C(=O)Nc2ccc(F)c(Cl)c2)c1 | 5.8
33 | CC(C)(C)c1ccc(C(C)(C)C)c(O)c1O | -14.7
34 | COc1ccc(NC(=O)COc2ccc(Br)cc2)cc1 | -7.5
35 | COc1cccc(/C=C2\C(=O)NC(=O)N(c3cc(C)cc(C)c3)C2=O)c1 | -7.8
36 | Cc1csc(NC(=O)c2ccc(-c3ccc(Cl)cc3Cl)o2)n1 | -5.8
37 | CCOc1ccc(CSc2ncnc(SCc3ccc(OCC)cc3)c2N)cc1 | -2.1
38 | Cc1ccc(S(=O)(=O)N2c3ccccc3C(Nc3ccccc3)CC2C)cc1 (stereo not given) | 0.9
39 | COc1ccc(/C=C2\C=C(c3ccc(Cl)cc3)OC2=O)cc1C | 0.9
40 | CC1=C(C#N)c2nc(N)c(C#N)c(C)c2/C1=C\c1cc([N+](=O)[O-])ccc1Cl | 0.6
41 | O=C1NN(c2ccccc2)C(=O)/C1=C/c1ccc(-c2cccc(C(=O)O)c2)o1 | 15.5
42 | CCOc1ccccc1/C=N/NC(=O)CC1C(=O)NN=C1C (stereo not given) | 4.6
43 | CCCC(C)NC(=O)c1ccc(Cl)cc1 (stereo not given) | 3.6
44 | COc1ccc(-n2c(O)c(C=Nc3ccccc3OC)c(=O)[nH]c2=O)cc1 | -10.3
45 | C=C(C)C1CC=C(C)C(=NNC(=O)c2cccc([N+](=O)[O-])c2)C1 (stereo not given) | 0.4
46 | COc1ccccc1NC(=O)C(=O)N/N=C/c1cccc(OC)c1O | -4.1
47 | COc1ccc(N(CC(=O)NC(C)(C)C)S(=O)(=O)c2ccc(C)c([N+](=O)[O-])c2)cc1 | 1.9
48 | CC(C)(C)c1csc(NC(=O)C(c2ccccc2)c2ccccc2)n1 | -2.6
49 | CN1C[N+]([O-])=C(c2ccccc2)C1(C)C | 8.7
50 | Cc1ccc(N2C(=O)NC(=O)/C(=C\c3cc(Br)ccc3OCC(=O)O)C2=O)cc1 | -7.8
51 | COc1cc(C(O)c2nc3ccccc3n2C)cc(OC)c1OC (stereo not given) | 2.1
52 | Cc1ccc(OCC(=O)O/N=C(\N)c2ccncc2)c(C)c1 | 2.5
53 | CCCC(=O)C1=C(O)C(C(=O)OC)C(C)(C)C/C1=N\c1nc2ccccc2[nH]1 (stereo not given) | 3.2
54 | CCOC(=O)c1c(NC(=S)NCc2ccccc2)sc2c1CC(C)(CC)OC2 (stereo not given) | -7.8
55 | Cc1ccc(CC2S/C(=N\N=C\c3ccc(N(C)C)cc3)NC2=O)cc1 (stereo not given) | -2.2
